Measured values published in article PMC6919601, “Identification of Plasmodium dipeptidyl aminopeptidase allosteric inhibitors by high throughput screening” (PLoS ONE, 2019).
Hit rate of the full screen: of about 110,000 compounds, about 230 (0.21%) showed an effect of 50% or more. The list shows a part of the results.

biological target: DPAP1 (Plasmodium falciparum, UniProt Q8IIJ9); assay: primary screen, percent inhibition; read by cleavage of a fluorogenic dipeptide substrate; higher = more effect of the substance; set-up: species or system P. falciparum D10 trophozoite lysates; single well
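Also: 30 min substrate incubation versus DMSO and 10 µM JCP410 controls.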

Sequence of DPAP1 (Q8IIJ9 whole entry, looked up): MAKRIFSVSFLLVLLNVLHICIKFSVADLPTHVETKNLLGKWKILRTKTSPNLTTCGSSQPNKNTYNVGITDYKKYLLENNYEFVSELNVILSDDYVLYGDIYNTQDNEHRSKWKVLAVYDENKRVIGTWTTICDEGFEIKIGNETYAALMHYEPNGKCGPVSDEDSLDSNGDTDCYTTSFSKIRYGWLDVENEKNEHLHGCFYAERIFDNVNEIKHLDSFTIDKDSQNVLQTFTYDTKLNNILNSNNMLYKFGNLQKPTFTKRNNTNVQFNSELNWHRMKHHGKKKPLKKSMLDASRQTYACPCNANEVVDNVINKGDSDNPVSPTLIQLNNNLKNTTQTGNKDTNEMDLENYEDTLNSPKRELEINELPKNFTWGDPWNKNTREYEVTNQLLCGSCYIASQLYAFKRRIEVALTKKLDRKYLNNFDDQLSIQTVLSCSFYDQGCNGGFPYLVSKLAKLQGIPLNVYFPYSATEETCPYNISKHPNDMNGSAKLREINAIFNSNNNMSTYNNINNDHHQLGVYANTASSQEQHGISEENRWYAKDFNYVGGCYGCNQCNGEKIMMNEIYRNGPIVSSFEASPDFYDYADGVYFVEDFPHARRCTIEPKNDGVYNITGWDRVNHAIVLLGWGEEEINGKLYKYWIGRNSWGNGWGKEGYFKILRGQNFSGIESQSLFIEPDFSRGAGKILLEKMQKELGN

First: CC(C)CC1C(C#N)=C(N)OC2=C1C(=O)CC(C)(C)C2 (stereo not shown)
Second: COc1ccc(OCc2nc(C#N)c(NCC(C)C)o2)cc1
The “% Inhibition @ 10 uM” value of the first is higher: 2.76% for the first, -1.18% for the second.

Compared with `CCC(C(=O)NCCc1c[nH]c2ccccc12)n1nc(C)n2c(cc3occc32)c1=O` (stereo not shown), `CNc1c(NS(=O)(=O)c2ccc(OC)cc2)c(=O)oc2ccccc12` is higher in “% Inhibition @ 10 uM” value: -5.63% for the first, -0.0709% for the second.

First: COc1cc2c(cc1OC)CN(Cc1ccc(F)cc1F)CC2
Second: COc1ccc(OC)c(CN2CCN(C(=O)c3ccc(OC)c(OC)c3)CC2)c1
The “% Inhibition @ 10 uM” value of the first is lower: -6.47% for the first, -1.98% for the second.

Going from `CCCCN(CC)C(=O)c1cn(CC)c(=O)c2cc(OC)c(OC)cc12` to `CCOC(=O)C(C)N1C(=O)S/C(=C\c2cc(Br)c(OC)c(OC)c2)C1=O` (stereo not shown), the “% Inhibition @ 10 uM” value falls from -0.228% to -4.75%.

Compared with `COc1ccccc1CNC(=O)CSCc1cnn(-c2ccccc2)c1-n1cccc1`, `COc1ccccc1CNC(=O)CCSc1ccc(Cl)cc1` is lower in “% Inhibition @ 10 uM” value: -2.85% for the first, -17.9% for the second.

Going from `O=C(Nc1ccccc1Oc1ccccc1)c1ccc(Br)o1` to `CCOc1ccccc1NC(=O)c1ccc(C(C)(C)C)cc1`, the “% Inhibition @ 10 uM” value rises from -0.0555% to 0.475%.

Going from `O=C(Cn1c(=O)c2cccn2c2cccnc21)NCCC1=CCCCC1` to `CCN(CCNC(=O)C1CCN(c2ncnc3c2nc2n3CCCCC2)CC1)Cc1ccccc1`, the “% Inhibition @ 10 uM” value rises from -7.24% to -3.22%.

First: c1ccc(-c2ccc3c(c2)c2c4n3CCN=C4CCC2)cc1
Second: Cc1ccc(Cn2nnc3sc(-c4ccccc4)cc3c2=O)cc1
The “% Inhibition @ 10 uM” value of the first is lower: -1.22% for the first, 46.2% for the second.

Compared with `CC(C)c1ccc(-n2nnc(-c3nc(-c4ccccc4F)no3)c2N)cc1`, `CC(C)c1ccc(C2=CC(c3ccccc3OC(F)F)n3ncnc3N2)cc1` (stereo not shown) is lower in “% Inhibition @ 10 uM” value: 0.331% for the first, 0.219% for the second.

Compared with `Brc1ccc(-c2nc(NCc3ccccc3)cc(-c3ccccc3)n2)cc1`, `Fc1ccccc1N1N=C(/C=C/c2ccc(Br)cc2)CC1c1ccc(Br)cc1` (stereo not shown) is higher in “% Inhibition @ 10 uM” value: -1.48% for the first, 2.62% for the second.

Compared with `COc1ccc(CN2CCN(Cc3ccc(OC)c(OC)c3)CC2)cc1Br`, `COc1ccc(Cc2nc(COc3ccc(Cl)c(C)c3)no2)cc1OC` is lower in “% Inhibition @ 10 uM” value: 0.408% for the first, -2.71% for the second.

Going from `COc1ccc(-c2cc(C(F)F)n3ncc(C(=O)N4CCOCC4)c3n2)cc1` to `O=C(NCc1ccc(Cl)cc1)N1CCOCC1`, the “% Inhibition @ 10 uM” value falls from 3.69% to -2.35%.

First: C=CCOc1nc(N2CCCCC2)nc(N2CCCCC2)n1
Second: CC1(C(=O)NC2CCCCCC2)Cc2ccccc2C(=O)N1C1CCCCC1 (stereo not shown)
The “% Inhibition @ 10 uM” value of the first is higher: 3.66% for the first, -3.34% for the second.

Going from `CC(=O)Nc1cccc(NC(C)=O)n1` to `COc1ccc(CC(=O)Nc2ccccc2C)cc1`, the “% Inhibition @ 10 uM” value rises from 4.31% to 5.56%.

First: CCOC(=O)c1c(C)[nH]c(C)c1S(=O)(=O)NCC(=O)NCc1cc(C)ccc1C
Second: COc1cccc(NC(=O)COc2ccc(S(=O)(=O)NC(C)C)cc2)c1
The “% Inhibition @ 10 uM” value of the first is lower: -3.76% for the first, 0.889% for the second.

Going from `CCCN1CCN(C(=O)CCc2c(C)nc3c(c2C)c(=O)n(C)c(=O)n3C)CC1` to `CCN1CCN(C(=O)Cn2ncc3c2-c2cc(C)ccc2OC3)CC1`, the “% Inhibition @ 10 uM” value falls from 0.44% to -8.2%.

First: CCOP(=O)(OCC)C(Nc1ccc(Br)cc1)c1ccc(Cl)cc1 (stereo not shown)
Second: O=C(Nc1ccc(NC(=O)c2ccccc2Cl)cc1)c1ccco1
The “% Inhibition @ 10 uM” value of the first is higher: 1.7% for the first, -1.28% for the second.

Going from `Cc1oc(-c2ccccc2F)nc1CN1CCC(C(=O)NCc2cccnc2)CC1` to `CCc1ccc(CNC(=O)C2CC(=O)N(CCc3ccccc3)C2)cc1` (stereo not shown), the “% Inhibition @ 10 uM” value rises from -8.65% to -1.79%.

First: Cc1cccn2cc(CSc3nc4ccccc4[nH]3)nc12
Second: Cc1cc(C)nc(Nc2n[nH]c(-c3ccccc3Cl)n2)n1
The “% Inhibition @ 10 uM” value of the first is lower: -0.303% for the first, 3.56% for the second.

Compared with `Cc1nc(NCCc2ccc3c(c2)OCCO3)c2cc(-c3ccccc3)sc2n1`, `CC(NC(=O)C1(c2ccccc2)CCCC1)C1COc2ccccc2O1` (stereo not shown) is higher in “% Inhibition @ 10 uM” value: 0.147% for the first, 0.685% for the second.

First: CN(C)CC(O)Cn1c2ccc(Cl)cc2c2cc(Cl)ccc21 (stereo not shown)
Second: Cc1ccc(C(=O)c2ccc(F)c(F)c2)cc1
The “% Inhibition @ 10 uM” value of the first is higher: 10.4% for the first, -8.48% for the second.

First: Cc1ccc(C2C(C(=O)c3ccccc3)=C(O)C(=O)N2c2ncccn2)cc1 (stereo not shown)
Second: Cc1nc(N2C(=O)C(O)=C(C(=O)c3ccccc3)C2c2ccccc2F)sc1C (stereo not shown)
The “% Inhibition @ 10 uM” value of the first is lower: -9.31% for the first, 2.98% for the second.

Going from `COc1ccccc1C(=O)Nc1ccc2oc(-c3ccc(F)cc3)nc2c1` to `COc1ccc(C2=N/C(=C\C(Cl)=C\c3ccccc3)C(=O)O2)cc1`, the “% Inhibition @ 10 uM” value rises from -5.4% to 4.54%.

First: COc1ccc(CNc2nc3c(c(C(F)(F)F)n2)CCCCC3)cc1
Second: CCOc1ccc(-c2c(C#N)c(N)nc3c2CCCC3)cc1
The “% Inhibition @ 10 uM” value of the first is lower: -3.27% for the first, 3.44% for the second.

Going from `CC1C(c2ccccc2)NC(c2ccccc2)C(C)C1(O)C#Cc1ccccc1` (stereo not shown) to `CC(C)(C)OC(=O)N1CCN(C2(c3ccccc3)C(=O)c3ccccc3C2=O)CC1`, the “% Inhibition @ 10 uM” value falls from -1.32% to -4.16%.

First: O=C(O)COc1ccc2ccccc2c1Br
Second: O=C(NCc1ccccc1)c1ccc(Cl)c([N+](=O)[O-])c1
The “% Inhibition @ 10 uM” value of the first is lower: -3.62% for the first, 0.467% for the second.

First: O=C(c1ccc(CSCc2ccccc2F)o1)N1CCN(c2ccc(N3CCOCC3)nn2)CC1
Second: O=C(CCc1nnc2n(Cc3ccccc3)c(=O)c3ccccc3n12)N1CCN(C2CCCCC2)CC1
The “% Inhibition @ 10 uM” value of the first is lower: -3.45% for the first, 4.16% for the second.

Going from `COc1cc(O)ccc1C1Nc2ccc(C)cc2-c2cc(C)nn21` (stereo not shown) to `COc1ccc(C2Nc3ccccc3N=C3CC(c4cccs4)CC(O)=C32)c(OC)c1` (stereo not shown), the “% Inhibition @ 10 uM” value falls from -2.11% to -2.77%.

Going from `COc1ccc(CCNC(=O)c2nnc(-c3cccnc3)o2)cc1OC` to `CCCCOc1ccc(NC(=O)c2sc3nc(N)c(C#N)cc3c2N)cc1`, the “% Inhibition @ 10 uM” value falls from -4.47% to -6.92%.

Compared with `CCCC[C@H](NC(=O)[C@H](C[C@H](C)c1ccccc1OC)NC(=O)c1cc2c(C(F)(F)F)nn(C)c2s1)C(=O)CC(=O)N1CCCC1`, `CCC(C)C(NC(=O)C1CCC(C)CC1)C(=O)NC(C)c1ccccc1` (stereo not shown) is lower in “% Inhibition @ 10 uM” value: 0.079% for the first, -4.06% for the second.

Compared with `OCC(O)C1OC2OC3(CCCCC3)OC2C1O` (stereo not shown), `CC1CCN(CC(O)COC2CC(C)CC(C)(C)C2)CC1` (stereo not shown) is lower in “% Inhibition @ 10 uM” value: -4.61% for the first, -7.76% for the second.

Going from `c1ccc(CC2CCN(c3nn4nnnc4c4ccccc34)CC2)cc1` to `Cc1cc(C)cc(NC(=O)C(C)SCc2ccccc2)c1` (stereo not shown), the “% Inhibition @ 10 uM” value rises from -8.89% to 5.66%.

First: CCCCCn1c(SC(C)CC)nc2c1c(=O)[nH]c(=O)n2C (stereo not shown)
Second: CCCn1c2ccccc2c2cnn(CC(=O)N3CCC4(CC3)OCCO4)c(=O)c21
The “% Inhibition @ 10 uM” value of the first is higher: 5.89% for the first, 0.00353% for the second.

Compared with `Cc1cc(OCC(O)CN2CCN(c3ccc(F)cc3)CC2)ccc1C(C)C` (stereo not shown), `Cc1ccccc1C(=O)Nc1ccc(S(=O)(=O)Nc2nccs2)cc1` is lower in “% Inhibition @ 10 uM” value: 2.22% for the first, -3.39% for the second.

First: CCOc1cc(/C=N\n2nnnc2N)ccc1O
Second: COc1ccc(Cl)cc1NC(=O)CC1S/C(=N\C(C)C)N(C(C)C)C1=O (stereo not shown)
The “% Inhibition @ 10 uM” value of the first is higher: 13.2% for the first, 2.22% for the second.

Compared with `COCCCNC(=O)C1CCCN(S(=O)(=O)N2CCOCC2)C1` (stereo not shown), `NC1CCC(C(=O)O)(c2ccccc2)C1` (stereo not shown) is higher in “% Inhibition @ 10 uM” value: -7.53% for the first, 1.72% for the second.

`Cc1cccc(N2C(=O)C(Cl)=C(Nc3ccc(S(N)(=O)=O)cc3)C2=O)c1C` was tested, and the “% Inhibition @ 10 uM” value was 0.458%.
